Assay results taken from publication PMC5540273 (PLoS ONE, 2017).
This is a selection; strong and weak results do not stand in their true shares.

Tests used:
[1] = tested on: ABL1-phosphorylated
[2] = tested on: CLK2
[3] = tested on: T1, ARK5
T1 construct: gene NUAK1

[4] = tested on: CLK1
[5] = tested on: BUB1
[6] = tested on: CIT
[7] = tested on: CSNK1D
[8] = tested on: ERBB2
[9] = tested on: CSNK1G1
[10] = tested on: GAK
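Also: kd values determined as follow-up on hits from a single-replicate KINOMEscan panel screen.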

Compound: O=C1NC(=O)C(c2ccccc2Cl)=C1Nc1cccc(C(=O)O)c1 [SB-390526]
- Kd [1]: > 10 µM
- Kd [2]: 0.4 µM

Compound: COc1ccc(C2=C(Nc3cccc(Cl)c3)C(=O)NC2=O)cc1 [SB-326892]
- Kd [3]: > 10 µM
- Kd [4]: 0.39 µM
- Kd [2]: 1.3 µM

Compound: CSc1ccc(NC2=C(c3cccc(Cl)c3)C(=O)NC2=O)cc1 [SB-341528]
- Kd [5]: > 10 µM

Compound: Cc1cc(C)cc(Oc2nccc(-c3c(-c4ccc(F)cc4)ncn3C3CCNCC3)n2)c1.O=C(O)C(F)(F)F.O=C(O)C(F)(F)F.O=C(O)C(F)(F)F [SB-284851]
- Kd [6]: 0.41 µM
- Kd [7]: 0.16 µM
- Kd [8]: 0.25 µM

Compound: O=C1NC(=O)C(c2ccccc2Cl)=C1Nc1ccccc1 [SB-376715]
- Kd [9]: > 10 µM
- Kd [10]: > 10 µM
